# Measured values taken from the supplement of paper PMC10369915.
# The other results are listed elsewhere or left out. Rule as the data show it: active = 3.2 or more and inactive = the rest. The signal is at background level for most entries.
# Assays:
# Test in all cases: enrichment score (SH2-bound / input frequency) (ratio); bacterial display of known human phosphotyrosine sites (pTyr-Var adds point mutants) read by sequencing; higher = stronger binding; tyrosines were phosphorylated by kinases first
# Details in all cases: peptide library: pTyr-Var
# SHP2 C-SH2 domain E139D = molecular target: SHP2 C-SH2 domain E139D
# [1] = molecular target: SHP2 C-SH2 domain wild-type
# SHP2 N-SH2 domain L43F = molecular target: SHP2 N-SH2 domain L43F
# SHP2 N-SH2 domain T42A = molecular target: SHP2 N-SH2 domain T42A
# SHP2 N-SH2 domain T52S = molecular target: SHP2 N-SH2 domain T52S
# [2] = molecular target: SHP2 N-SH2 domain wild-type
# 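Also: displayed peptides selected on beads carrying the immobilized SH2 domain, with library peptides lacking any tyrosine serving as negative controls.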
Binder,enrichment score (SHP2 C-SH2 domain E139D),enrichment score [1],enrichment score (SHP2 N-SH2 domain L43F),enrichment score (SHP2 N-SH2 domain T42A),enrichment score (SHP2 N-SH2 domain T52S),enrichment score [2]
SVNIRYLLFPS [SERAC1_Y548],active: 3.4,inactive: 3.1,active: 3.4,inactive: 3.1,inactive: 2.86,inactive: 2.79
HQNGMYGLHQD [SGSH_Y89],inactive: 0.907,inactive: 0.77,inactive: 0.89,inactive: 0.688,inactive: 0.643,inactive: 0.665
PHMQTYEVDHN [SDHB_Y61_L65H],inactive: 0.618,inactive: 0.723,inactive: 0.824,inactive: 0.502,inactive: 0.668,inactive: 0.861
KKFPDYIQIAR [SGMS2_Y59_M64R_YF],inactive: 1.39,inactive: 1.16,inactive: 1.25,inactive: 1.11,inactive: 1.22,inactive: 1.23
TVETKYDNISR [SETDB2_Y477],inactive: 0.685,inactive: 0.582,inactive: 0.721,inactive: 0.817,inactive: 0.804,inactive: 0.784
KKYPDYIQIAR [SGMS2_Y59_M64R],inactive: 1.21,inactive: 1.3,inactive: 1.21,inactive: 1.04,inactive: 1.17,inactive: 1.39
VVLVSYVPFSQ [SH2B1_Y624_S627F],inactive: 2.48,inactive: 3.13,inactive: 2.77,inactive: 2.57,inactive: 2.56,inactive: 2.82
RKELFYKADGE [SERPINC1_Y272],inactive: 0.662,inactive: 0.487,inactive: 0.405,inactive: 0.315,inactive: 0.466,inactive: 0.554
PHMQTYEVDPN [SDHB_Y61_L65P],inactive: 0.818,inactive: 0.706,inactive: 0.86,inactive: 0.47,inactive: 0.804,inactive: 0.91
HQNGTYGLHQD [SGSH_Y89_M88T],inactive: 0.698,inactive: 0.828,inactive: 0.604,inactive: 0.545,inactive: 0.57,inactive: 0.758
KKYPDYIQIAM [SGMS2_Y59],inactive: 1.82,inactive: 1.6,inactive: 1.66,inactive: 1.88,inactive: 1.65,inactive: 2.04
SARSAYQEAID [SFN_Y151_M155I],inactive: 0.577,inactive: 0.502,inactive: 0.642,inactive: 0.575,inactive: 0.837,inactive: 0.894
NLDCFYQQVTK [SEC16A_Y1041_R1039C],inactive: 0.831,inactive: 0.92,inactive: 0.957,inactive: 0.808,inactive: 0.951,inactive: 0.915
VMTVDYSKTVV [SETD2_Y770],inactive: 0.845,inactive: 0.9,inactive: 0.786,inactive: 1.49,inactive: 0.807,inactive: 0.883
DPTNTYARPAE [SGMS2_Y24],inactive: 0.5,inactive: 0.572,inactive: 0.809,inactive: 0.453,inactive: 0.782,inactive: 0.623
PNATLYKMSSI [SERPINA7_Y40],inactive: 0.518,inactive: 0.668,inactive: 0.689,inactive: 0.617,inactive: 0.578,inactive: 0.886
SGSFRYGSSCE [SELE_Y390],inactive: 0.633,inactive: 0.567,inactive: 0.571,inactive: 0.562,inactive: 0.469,inactive: 0.634
GLDGSYLLRDS [SH2D1A_Y29],inactive: 0.525,inactive: 0.55,inactive: 0.754,inactive: 0.545,inactive: 0.698,inactive: 0.779
VVHSSYDEIEG [SEC24A_Y263],inactive: 0.644,inactive: 0.594,inactive: 0.465,inactive: 0.872,inactive: 0.585,inactive: 0.679

Binder,enrichment score (SHP2 C-SH2 domain E139D),enrichment score [1],enrichment score (SHP2 N-SH2 domain L43F),enrichment score (SHP2 N-SH2 domain T42A),enrichment score (SHP2 N-SH2 domain T52S),enrichment score [2]
HQNGMYRLHQD [SGSH_Y89_G90R],inactive: 0.93,inactive: 0.916,inactive: 0.737,inactive: 0.733,inactive: 0.854,inactive: 0.84
NDTAGYFVIGG [SEL1L3_Y399_I401V],inactive: 0.867,inactive: 0.938,inactive: 0.892,inactive: 0.934,inactive: 0.885,inactive: 0.865
EEALFYLTRVE [SET_Y119_H118Y_YF],inactive: 0.886,inactive: 0.749,inactive: 0.853,inactive: 0.797,inactive: 0.687,inactive: 1.01
SGAWSYNTSTE [SELE_Y24],inactive: 0.919,inactive: 0.76,inactive: 0.843,inactive: 0.911,inactive: 0.691,inactive: 0.841
RQEEEYKRFSE [SFSWAP_Y133_L136F],inactive: 0.819,inactive: 0.775,inactive: 0.813,inactive: 0.574,inactive: 0.861,inactive: 0.99
RKKLFYKADGE [SERPINC1_Y272_E269K],inactive: 0.3,inactive: 0.31,inactive: 0.222,inactive: 0.256,inactive: 0.328,inactive: 0.342
DAVAVYHGKIS [SH2D1A_Y7],inactive: 0.678,inactive: 0.761,inactive: 0.795,inactive: 0.648,inactive: 0.607,inactive: 0.742
TGEDWYVLVRV [SF3B3_Y904_G908R],inactive: 0.583,inactive: 0.875,inactive: 0.595,inactive: 0.663,inactive: 0.594,inactive: 0.992
GLDGRYLLRDS [SH2D1A_Y29_S28R],inactive: 0.963,inactive: 0.76,inactive: 0.739,inactive: 0.815,inactive: 0.72,inactive: 0.981
SGSFRYGSSFE [SELE_Y390_C394F],inactive: 0.7,inactive: 0.637,inactive: 0.896,inactive: 0.622,inactive: 0.563,inactive: 0.795
SARSAYQEAMD [SFN_Y151],inactive: 0.721,inactive: 0.635,inactive: 0.601,inactive: 0.579,inactive: 0.533,inactive: 0.724
TMETKYDNISR [SETDB2_Y477_V473M],inactive: 0.666,inactive: 0.743,inactive: 0.652,inactive: 0.644,inactive: 0.689,inactive: 0.535
KKYPDYIQSAM [SGMS2_Y59_I62S],inactive: 1.06,inactive: 1.4,inactive: 1.05,inactive: 0.879,inactive: 0.991,inactive: 0.724
NLDRFYQQVTK [SEC16A_Y1041],inactive: 1.1,inactive: 0.851,inactive: 0.816,inactive: 0.853,inactive: 0.714,inactive: 0.942
NMHSTYAKLAA [SEC22B_Y193],inactive: 1.37,active: 3.32,inactive: 0.644,inactive: 2.4,inactive: 0.747,inactive: 0.659
RQEEEYKRLSE [SFSWAP_Y133],inactive: 0.277,inactive: 0.821,inactive: 0.681,inactive: 0.302,inactive: 0.828,inactive: 0.662
EEALHYLTRVE [SET_Y119],inactive: 0.952,inactive: 0.971,inactive: 2.08,inactive: 1.07,inactive: 1.94,inactive: 0.996
SGSWSYNTSTE [SELE_Y24_A21S],inactive: 0.813,inactive: 0.809,inactive: 0.833,inactive: 0.748,inactive: 0.902,inactive: 0.988
